Article PMC4336329 (PLoS ONE, 2015)
The campaign covered roughly 310,000 compounds. About 2,200 (0.71%) showed an effect of 50% or more. Effects have a minus sign here. This is one part of the list.

Each compound was assayed against human ether-à-go-go-related gene (hERG) potassium channel (human, UniProt Q12809) (assay: primary screen, population patch clamp on CHO cells stably expressing hERG).
human ether-à-go-go-related gene (hERG) potassium channel, sequence (Q12809 whole entry, looked up): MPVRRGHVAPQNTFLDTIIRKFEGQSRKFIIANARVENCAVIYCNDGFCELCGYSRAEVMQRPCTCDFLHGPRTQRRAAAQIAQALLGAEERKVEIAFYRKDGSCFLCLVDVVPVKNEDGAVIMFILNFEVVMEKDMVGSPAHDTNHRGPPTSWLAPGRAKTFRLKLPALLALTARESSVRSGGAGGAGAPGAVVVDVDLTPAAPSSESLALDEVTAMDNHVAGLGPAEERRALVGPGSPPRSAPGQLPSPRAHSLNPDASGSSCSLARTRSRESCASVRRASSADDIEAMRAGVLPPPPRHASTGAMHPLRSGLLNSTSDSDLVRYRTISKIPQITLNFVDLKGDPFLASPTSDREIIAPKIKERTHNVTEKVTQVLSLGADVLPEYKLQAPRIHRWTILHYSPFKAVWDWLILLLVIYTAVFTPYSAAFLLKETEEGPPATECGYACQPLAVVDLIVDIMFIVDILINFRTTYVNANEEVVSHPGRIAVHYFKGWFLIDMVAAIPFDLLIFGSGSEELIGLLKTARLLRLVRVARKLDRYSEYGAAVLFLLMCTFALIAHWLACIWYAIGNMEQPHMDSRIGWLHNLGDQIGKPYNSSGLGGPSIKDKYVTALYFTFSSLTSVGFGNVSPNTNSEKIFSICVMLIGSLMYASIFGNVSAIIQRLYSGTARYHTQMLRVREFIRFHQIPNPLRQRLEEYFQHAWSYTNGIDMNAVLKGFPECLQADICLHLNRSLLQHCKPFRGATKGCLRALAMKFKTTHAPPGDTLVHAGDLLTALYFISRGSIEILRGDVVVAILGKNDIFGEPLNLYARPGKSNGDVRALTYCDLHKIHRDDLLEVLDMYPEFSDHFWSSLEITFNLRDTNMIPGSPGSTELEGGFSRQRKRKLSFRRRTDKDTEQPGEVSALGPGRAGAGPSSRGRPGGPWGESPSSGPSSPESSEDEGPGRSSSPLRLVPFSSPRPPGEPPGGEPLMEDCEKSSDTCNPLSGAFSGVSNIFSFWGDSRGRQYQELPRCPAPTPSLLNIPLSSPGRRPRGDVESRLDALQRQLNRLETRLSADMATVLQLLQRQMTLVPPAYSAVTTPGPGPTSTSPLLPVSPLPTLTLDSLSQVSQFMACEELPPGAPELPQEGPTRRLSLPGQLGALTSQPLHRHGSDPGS
With Cc1ccc(OCC(=O)Nc2cccc(S(=O)(=O)NC3=NCCCCC3)c2)cc1C the “hERG current change (%, negative = inhibition) at 1uM” value was 7.24%. CC(O)CNc1cnccn1 (centres unmarked) was tested, and the “hERG current change (%, negative = inhibition) at 1uM” value was -2.14%. In the case of CC(OC(=O)c1ccccc1NCCO)C(=O)NC1CCCCC1C (centres unmarked), the “hERG current change (%, negative = inhibition) at 1uM” value is reported as -5.1%. With CCOC(=O)C1=C(CC)OC(N)=C(C#N)C1c1cccs1 (centres unmarked) the “hERG current change (%, negative = inhibition) at 1uM” value was 3.73%. With COc1ccc(NC(=O)N2CCCC2C(=O)Nc2cccc(C)c2C)cc1 (centres unmarked) the “hERG current change (%, negative = inhibition) at 1uM” value was 12.4%. CCN1C(=O)N[C@@H](c2cccc(C(F)(F)F)c2)C(C(=O)OC)=C1C was tested, and the “hERG current change (%, negative = inhibition) at 1uM” value was 17.3%. COc1ccc(NC(=O)Nc2c[nH]c(=O)[nH]c2=O)cc1 was tested, and the “hERG current change (%, negative = inhibition) at 1uM” value was 9.83%. CC[C@H](C)Cc1cn([C@@H](CCCCN)C(=O)NCCCCCCCCCCC(=O)N2CCNCC2)nn1 was tested, and the “hERG current change (%, negative = inhibition) at 1uM” value was 15.1%. With CCCN(C(=O)Cn1ncc2c([nH]c3ccccc32)c1=O)c1ccccc1C the “hERG current change (%, negative = inhibition) at 1uM” value was 16%. For CCOc1ccc(NC(=O)CS(=O)CC(=O)NC2CCCc3ccccc32)cc1 (centres unmarked), the “hERG current change (%, negative = inhibition) at 1uM” value was 15.2%. CCCc1n(CC(O)COCC2CC=CCC2)c2ccccc2[n+]1C.[I-] (centres unmarked) was tested, and the “hERG current change (%, negative = inhibition) at 1uM” value was -5.12%. For COc1ccccc1NC(=O)C1CCN(C(=O)NCc2ccccc2)CC1, the “hERG current change (%, negative = inhibition) at 1uM” value was 8.48%. For COC(=O)CSc1cc([N+](=O)[O-])cc2c1c(C1OCCO1)nn2-c1ccccc1, the “hERG current change (%, negative = inhibition) at 1uM” value was -0.182%. For CC1CCCC(NS(=O)(=O)c2ccc3c(c2)OCCO3)C1C (centres unmarked), the “hERG current change (%, negative = inhibition) at 1uM” value was 3.3%. Cc1ccc2nc3c(cc(C(=O)NCC4CCCO4)c(=N)n3CCCOC(C)C)c(=O)n2c1 (centres unmarked) was tested, and the “hERG current change (%, negative = inhibition) at 1uM” value was -72.5%. For COc1cc(NC(=O)C/C(C)=N/NC(=O)C2CCCCC2)c(OC)cc1Cl, the “hERG current change (%, negative = inhibition) at 1uM” value was 14.8%. In the case of O=C1N=NC2=C1c1c3ccccc3c(O)n1CC2, the “hERG current change (%, negative = inhibition) at 1uM” value is reported as 11.5%. For CCOP(=O)(O)c1cccc(OCCOCCOc2cccc(P(=O)(O)OCC)c2)c1, the “hERG current change (%, negative = inhibition) at 1uM” value was -1.31%. For O=[N+]([O-])c1cc2c(cc1C=Nc1ccccc1)OCO2, the “hERG current change (%, negative = inhibition) at 1uM” value was 0.781%. In the case of COc1cc([N+](=O)[O-])ccc1N, the “hERG current change (%, negative = inhibition) at 1uM” value is reported as 13.4%. In the case of COc1ccccc1OCCNC(=O)C1CC(=O)N(c2ccccc2OC)C1 (centres unmarked), the “hERG current change (%, negative = inhibition) at 1uM” value is reported as 2.48%. c1ccc(Cn2ccnc2)cc1 was tested, and the “hERG current change (%, negative = inhibition) at 1uM” value was 17.7%. For COc1ccc(-c2csc(Nc3ccccc3)n2)cc1, the “hERG current change (%, negative = inhibition) at 1uM” value was 13%. For CCc1c(C(=O)Nc2ccc(C)c(C)c2)[nH]c(C)c1C(C)=O, the “hERG current change (%, negative = inhibition) at 1uM” value was 16.1%. For O=C(NC1CCCCC1)C(c1ccco1)N(C(=O)c1csnn1)c1ccc(Cl)cc1 (centres unmarked), the “hERG current change (%, negative = inhibition) at 1uM” value was 9.21%. Cc1c(Cl)cccc1NC(=O)CCC(=O)NNC(=O)CCC(=O)O was tested, and the “hERG current change (%, negative = inhibition) at 1uM” value was 5%. With Cc1onc(-c2c(F)cccc2Cl)c1C(=O)Nc1sc2c(c1C#N)CCC(C(C)(C)C)C2 (centres unmarked) the “hERG current change (%, negative = inhibition) at 1uM” value was 19.9%. For COc1ccc(C(=O)NCCc2nnc(SCc3nc4ccccc4c(=O)[nH]3)n2C)cc1, the “hERG current change (%, negative = inhibition) at 1uM” value was 6.64%. CN(CC(=O)Nc1ccccc1Br)C(=O)CNC(=O)C1CCCCC1 was tested, and the “hERG current change (%, negative = inhibition) at 1uM” value was 14.5%. For C=CCOC(=O)C1=C[C@@H](c2ccc(Br)cc2)C[C@@H](OCCCCO)O1, the “hERG current change (%, negative = inhibition) at 1uM” value was 5.46%. O=C(COc1ccc(Br)cc1)Nc1ccccc1C(=O)N1CCOCC1 was tested, and the “hERG current change (%, negative = inhibition) at 1uM” value was 1.78%. For COc1ccc(C(=O)N(CN2CCCC2=O)c2nccs2)cc1OC, the “hERG current change (%, negative = inhibition) at 1uM” value was 7%. With COc1ccc(NC(=O)C2CCCCN2CC(=O)OCc2ccccc2)cc1OC.O=C(O)C(=O)O (centres unmarked) the “hERG current change (%, negative = inhibition) at 1uM” value was 2.71%. Nc1ccccc1SC1CC(=O)N(c2ccc3c(c2)OCCO3)C1=O (centres unmarked) was tested, and the “hERG current change (%, negative = inhibition) at 1uM” value was 12.3%. With Cc1ccc(S(=O)(=O)N2CCNC(=O)CC2)cc1 the “hERG current change (%, negative = inhibition) at 1uM” value was 18.1%. CC(C)C(O)C1CCN(Cc2nc(Cc3ccccc3Cl)no2)CC1 (centres unmarked) was tested, and the “hERG current change (%, negative = inhibition) at 1uM” value was 15.5%. With Cc1coc2cc3oc(=O)c(CCC(=O)NC4CC4)c(C)c3cc12 the “hERG current change (%, negative = inhibition) at 1uM” value was 12.8%. In the case of CCOC(=O)C1CCN(C(=O)COC(=O)c2cc(-c3cccs3)nn2-c2ccccc2)CC1, the “hERG current change (%, negative = inhibition) at 1uM” value is reported as 9.01%. With CC(C)c1cc(C(=O)O)c2ccccc2n1 the “hERG current change (%, negative = inhibition) at 1uM” value was 8.5%. In the case of Cc1nn(C)c(C(=O)NNC(=O)Nc2cccc(C(F)(F)F)c2)c1Cl, the “hERG current change (%, negative = inhibition) at 1uM” value is reported as 13.5%. In the case of COc1cccc(N/C(C)=C/C(=O)c2ccc(Br)cc2)c1, the “hERG current change (%, negative = inhibition) at 1uM” value is reported as 6.47%. In the case of CCC(=O)N1CCN(c2ccc(NC(=O)c3cc4ccccc4o3)cc2Cl)CC1, the “hERG current change (%, negative = inhibition) at 1uM” value is reported as -6.01%. For CC(=O)N/C(=C\c1ccc(F)cc1)C(=O)NC(Cc1ccccc1)C(=O)O (centres unmarked), the “hERG current change (%, negative = inhibition) at 1uM” value was 12.3%. For O=C(COC(=O)c1ccccc1C(=O)c1ccc(Cl)cc1)NCc1ccccc1, the “hERG current change (%, negative = inhibition) at 1uM” value was 8.75%.
